Several values for one entry are separate records, joined by “and”; a condition that tells them apart may be missing. Equal values may be shown once. About 700 (0.2%) of roughly 350,000 compounds were called active. The call rests on the fitted dose curve; in most records, active means well fitted inhibition curve with a large enough effect; inconclusive means small, poorly fitted or top-dose-only effect; inactive means flat fitted curve, though single readings scatter. The list shows a part of the results, in another mix than the full data. Where a structure was tested more than once in an assay, its records may differ in their call. Numbered stars: 1 amine (or outer) side, 2 acyl side, 3 side chain; on linkers, the order of the positions; unused ones are H or OH. Bridge positions count the residues as written; N and C are the ends. Square brackets hold non-standard residues; d marks the D form. Peptide text beside a SMILES is read from it. I, II: the chains in the order shown. * marks the point of attachment. Actinocin(9to1) = Cc1c2oc3c(C)ccc(C(=O)[*:1])c3nc-2c(C(=O)[*:2])c(N)c1=O; Fmoc = O=C(OCC1c2ccccc2-c2ccccc21)*; AMC = Cc1cc(=O)oc2cc(N*)ccc12; Cha = N[CH](CC1CCCCC1)C(=O)O; NMeV = CN[C@H](C(=O)O)C(C)C; Sar = CNCC(=O)O

Results on 82 molecules are retold here after PubChem BioAssay AID2528 (National Center for Advancing Translational Sciences (NCATS), 2010).
Potency means the concentration at half of the fitted maximal effect.

The test has as its target RecQ-like DNA helicase BLM (Homo sapiens) (UniProt P54132). In words: qHTS Assay for Inhibitors of Bloom's syndrome helicase (BLM). Further: nearly all actives have a fitted effect of over 35% in size.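 On activity change, negative = inhibition: plate controls were vehicle for no effect and no enzyme for full effect.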 Conditions: recombinant BLM DNA unwinding, fluorescence dequenching; series mostly up to 56.1 µM; activity change, negative = inhibition: at the top concentration. For orientation: Quantitative high-throughput screening tests each substance at several concentrations.
Chain of UniProt P54132 (P54132 whole entry, looked up): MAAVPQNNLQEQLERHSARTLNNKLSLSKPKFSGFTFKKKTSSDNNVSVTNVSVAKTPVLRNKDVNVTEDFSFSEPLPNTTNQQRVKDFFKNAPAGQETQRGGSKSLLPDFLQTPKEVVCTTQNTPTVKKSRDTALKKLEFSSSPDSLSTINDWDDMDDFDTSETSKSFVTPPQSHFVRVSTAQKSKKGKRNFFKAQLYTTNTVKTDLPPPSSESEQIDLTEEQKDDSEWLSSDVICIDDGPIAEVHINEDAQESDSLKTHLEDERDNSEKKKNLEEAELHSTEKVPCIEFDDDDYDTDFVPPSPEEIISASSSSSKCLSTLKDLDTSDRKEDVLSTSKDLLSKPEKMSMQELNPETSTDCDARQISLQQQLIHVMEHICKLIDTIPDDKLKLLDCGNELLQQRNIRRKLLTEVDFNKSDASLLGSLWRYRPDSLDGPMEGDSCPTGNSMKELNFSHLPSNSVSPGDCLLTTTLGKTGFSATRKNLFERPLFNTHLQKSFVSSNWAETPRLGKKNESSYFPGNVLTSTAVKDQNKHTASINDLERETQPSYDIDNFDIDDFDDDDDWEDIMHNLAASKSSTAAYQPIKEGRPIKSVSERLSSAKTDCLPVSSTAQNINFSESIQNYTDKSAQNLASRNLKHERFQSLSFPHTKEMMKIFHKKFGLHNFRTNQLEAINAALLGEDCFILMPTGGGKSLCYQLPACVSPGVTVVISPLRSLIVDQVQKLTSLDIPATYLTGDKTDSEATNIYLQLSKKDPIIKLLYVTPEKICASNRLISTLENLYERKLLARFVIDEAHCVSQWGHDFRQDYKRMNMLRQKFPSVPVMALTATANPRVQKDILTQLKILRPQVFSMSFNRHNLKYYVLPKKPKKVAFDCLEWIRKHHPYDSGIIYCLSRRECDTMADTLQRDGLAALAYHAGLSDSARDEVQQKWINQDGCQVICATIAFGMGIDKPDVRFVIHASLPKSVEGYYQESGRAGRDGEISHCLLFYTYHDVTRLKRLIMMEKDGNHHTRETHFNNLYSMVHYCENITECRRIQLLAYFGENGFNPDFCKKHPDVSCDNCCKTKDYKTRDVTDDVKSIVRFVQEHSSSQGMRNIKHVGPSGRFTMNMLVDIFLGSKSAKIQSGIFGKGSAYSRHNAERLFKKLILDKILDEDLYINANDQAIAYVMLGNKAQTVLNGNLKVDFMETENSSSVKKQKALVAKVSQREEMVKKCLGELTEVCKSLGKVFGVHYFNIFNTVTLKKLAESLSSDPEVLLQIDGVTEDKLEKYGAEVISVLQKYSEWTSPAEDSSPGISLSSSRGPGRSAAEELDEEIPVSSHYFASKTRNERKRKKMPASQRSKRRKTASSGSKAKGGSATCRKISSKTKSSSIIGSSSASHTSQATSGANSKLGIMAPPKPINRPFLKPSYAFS
With `CCc1ccc(S(=O)(=O)/N=C2\C=C(Nc3ccc(C(=O)O)cc3)C(=O)c3ccccc32)cc1`, the Potency was active: 25.1 µM.

Consider `CCN1CCC[C@H]1CNC(=O)c1cc(S(N)(=O)=O)ccc1OC`, for which the Potency result is “inactive”.

For the molecule `COc1ccc(C(=O)Nc2nnc(SCc3cc(=O)c4cc(C)cc(C)c4[nH]3)s2)cc1`, the Potency is active: 20 µM.

As to `O=C1C(Cl)=C(NCCN2CCOCC2)C(=O)c2ncccc21`, the Potency is active: 3.55 µM and active: 5.01 µM.

As for `O=c1c(-c2cc(F)cc(F)c2)nc2cnc(N3CCNCC3)nc2n1Cc1ccc(F)cc1`, the Potency was active: 35.5 µM.

For the molecule `CC(C)N(CCC(=O)c1ccc2ccccc2c1)Cc1ccccc1`, the “activity change, negative = inhibition” value is inactive: -7.9%.

For `NS(=O)(=O)c1cc2c(cc1Cl)N[C@@H]([C@@H]1C[C@@H]3C=C[C@H]1C3)NS2(=O)=O`, the “activity change, negative = inhibition” value is inactive: -5.76%.

With `COc1cc(Cl)c(C)cc1NC(=O)CSc1ncc(S(=O)(=O)c2ccc(C(C)(C)C)cc2)c(=O)[nH]1`, the Potency is active: 15.8 µM.

In the case of `CC(C)(Oc1ccc(C2CC2(Cl)Cl)cc1)C(=O)O` (configuration not stated), the “activity change, negative = inhibition” value was inactive: -3.43%.

Regarding `COc1c2c(nc3ccccc13)O[C@H]([C@@](C)(O)CO)C2`, the “activity change, negative = inhibition” value is inactive: 5.03% [at 21.4 µM].

Consider `CCOC(=O)C1=C(C)NC(C)=C(C(=O)OC)C1c1cccc([N+](=O)[O-])c1` (configuration not stated), for which the Potency entry is “inactive”.

Consider `COCCOC(=O)C1=C(C)NC(C)=C(C(=O)OC(C)C)[C@@H]1c1cccc([N+](=O)[O-])c1`, for which the “activity change, negative = inhibition” value is inactive: -8.84%.

Take `Cc1nc2c(OCc3ccccc3)cccn2c1CC#N`: the “activity change, negative = inhibition” value was inactive: 2.86%.

In the case of `O=C(c1ccc(OCCN2CCCCC2)cc1)c1c(-c2ccc(O)cc2)sc2cc(O)ccc12`, the Potency result is “inactive”.

Consider `Cc1ccc(N=C2NC(=O)/C(=C/C=C/c3ccco3)S2)cc1C`, for which the Potency is active: 11.2 µM.

Take `CC(CN1c2ccccc2Sc2ccccc21)N(C)C` (configuration not stated): the Potency result was “inactive”.

With `O=C(Nc1ccc2nc(-c3ccco3)c(-c3ccco3)nc2c1)N1CCCCCC1`, the Potency is active: 5.62 µM.

As to `N[C@H](Cc1cc(I)c(Oc2ccc(O)c(I)c2)c(I)c1)C(=O)O`, the “activity change, negative = inhibition” value is inactive: -0.488% [at 21.4 µM].

Take `COc1cc2c(-c3ccc(O)cc3)nc3c(c(C)nn3-c3ccccc3)c2cc1OC`: the Potency was active: 14.1 µM.

As for `O=C(O)c1ccccc1Nc1cccc(OCc2ccc3ccccc3n2)c1`, the “activity change, negative = inhibition” value was inactive: -11.9%.

As to `CCCCCn1c(N)c(-c2nc3ccccc3o2)c2c([N+](=O)[O-])nn(C)c(=O)c21`, the Potency was active: 15.8 µM.

As to `CCCCCCCC/C=C\CCCCCCCC(=O)O`, the “activity change, negative = inhibition” value is inactive: 0.957%.

Take `CN(c1ccccc1)c1ccc(/C=C(\CCC(=O)O)c2nc3ccccc3s2)cc1[N+](=O)[O-]`: the Potency is active: 22.4 µM.

Consider `C#C[C@]1(O)CC[C@H]2[C@H]3CCC4=Cc5oncc5C[C@]4(C)[C@@H]3CC[C@]21C`, for which the “activity change, negative = inhibition” value is inactive: -2.41%.

Consider `CCCC(CCC)C(=O)O`, for which the Potency result is “inactive”.

As to `CN(C)CCCC1(c2ccc(F)cc2)OCc2cc(C#N)ccc21` (configuration not stated), the Potency result is “inactive”.

`COC(=O)[C@H]1C(OC)[C@@H](OC(=O)c2cc(OC)c(OC)c(OC)c2)C[C@@H]2CN3CCc4c([nH]c5cc(OC)ccc45)[C@H]3C[C@H]21` (some centres not stated): the “activity change, negative = inhibition” value is inactive: -19.3%.

Take `CN(C)CCC(c1ccc(Cl)cc1)c1ccccn1` (configuration not stated): the Potency entry was “inactive”.

As to `CC[C@H](C)N(C)C(=O)c1cc2ccccc2c(-c2ccccc2Cl)n1`, the “activity change, negative = inhibition” value is inactive: -3.93%.

In the case of `C[C@H](NC(=O)/C(C#N)=C/c1ccc(O)c(O)c1)c1ccccc1`, the “activity change, negative = inhibition” value was inactive: -14.5%.

For `Cc1ccc(S(=O)(=O)/N=C2/C=C(Sc3ncn[nH]3)C(=O)c3ccccc32)cc1`, the Potency is active: 15.8 µM.

Regarding `COc1cc(=O)n(C)c2c(OCC(O)C(C)(C)O)cccc12` (configuration not stated), the “activity change, negative = inhibition” value is inactive: 1.12%.

`CN1/C(=C\C=C2/SC(=S)N(CC(=O)O)C2=O)C(C)(C)c2ccccc21`: the Potency is active: 14.1 µM.

In the case of `Cc1cn([C@H]2C[C@H](N=[N+]=[N-])[C@@H](CO)O2)c(=O)[nH]c1=O`, the Potency result was “inactive”.

As for `COc1ccc([C@@H]2Sc3ccccc3N(CCN(C)C)C(=O)[C@@H]2OC(C)=O)cc1`, the Potency entry was “inactive”.

In the case of `NS(=O)(=O)Cc1noc2ccccc12`, the Potency entry is “inactive”.

For the molecule `CCOC(=O)C1=C[C@@]2(CC)CCCN3CCc4c(n1c1ccccc41)[C@H]32`, the Potency entry is “inactive”.

Turning to `C=CCN1CCc2c(cc(O)c(O)c2Cl)C(c2ccccc2)C1` (configuration not stated), the “activity change, negative = inhibition” value was inactive: -4.77%.

As for `Cc1c(Cc2ccccc2)c(=O)oc2c(O)c(O)ccc12`, the Potency was active: 12.6 µM.

As to `CSc1nc(N)c2ncn([C@H]3O[C@H](COP(=O)(O)OP(=O)(O)OP(=O)(O)O)[C@@H](O)[C@@H]3O)c2n1`, the “activity change, negative = inhibition” value was inactive: -3.16%.

For `NCCS`, the Potency entry was “inactive”.

Consider `COCCOC(=O)C1=C(C)NC(C)=C(C(=O)OC(C)C)C1c1cccc([N+](=O)[O-])c1` (configuration not stated), for which the Potency entry is “inactive”.

With `CN1C(C(=O)Nc2ccccn2)=C(O)c2ccccc2S1(=O)=O`, the Potency entry was “inactive”.

For the molecule `COc1cccc(N2CCN(CC(=O)NC(=O)NCc3ccco3)CC2)c1`, the Potency is active: 11.2 µM.

For `CCOC(=O)C1=C(C)NC(C)=C(C(=O)OC)[C@@H]1c1cccc([N+](=O)[O-])c1`, the “activity change, negative = inhibition” value is inactive: -4.83% [at 21.4 µM].

`O=c1[nH]c2cc(Cl)c(Cl)cc2[nH]c1=O`: the “activity change, negative = inhibition” value was inactive: 0.939%.

`O=C1c2ccccc2-c2onc3ccc(NCCCn4ccnc4)c1c23`: the Potency was active: 35.5 µM.

For `COC(=O)c1ccc(=O)c2nc3/c(=C/O)c(O)cc(=O)c3[nH]c12`, the Potency was active: 17.8 µM.

As to `CCN(Cc1ccncc1)C(=O)[C@@H](CO)c1ccccc1`, the Potency entry was “inactive”.

Turning to `O=C(O)c1cc([N+](=O)[O-])ccc1NCCCc1ccccc1`, the Potency result was “inactive”.

Turning to `CCCC(=O)OCCNc1cc(SCc2ccco2)c2nonc2c1[N+](=O)[O-]`, the Potency is active: 12.6 µM.

Turning to `O=C1Nc2ccc(I)cc2/C1=C/c1cc(Br)c(O)c(Br)c1`, the “activity change, negative = inhibition” value is inactive: -14.1%.

In the case of `COc1cccc(C2/C(=C(\O)c3ccc4c(c3)OCCO4)C(=O)C(=O)N2CCN(C)C)c1` (configuration not stated), the Potency is active: 8.91 µM.

Turning to `O=C(O)CCCC[C@@H]1CCSS1`, the “activity change, negative = inhibition” value was inactive: 4.72%.

As for `NC(=O)N1c2ccccc2CC(=O)c2ccccc21`, the Potency result is “inactive”.

Consider `Cc1c2cc(O)c(=O)cc-2oc2cc(O)c(O)cc12`, for which the Potency was active: 14.1 µM.

In the case of `Cc1cc(=O)oc2cc(NC(=O)C(CCCCN)NC(=O)C(CC3CCCCC3)NC(=O)OCC3c4ccccc4-c4ccccc43)ccc12` (configuration not stated) (Fmoc-[Cha]-Lys-{AMC}; configuration not given here), the “activity change, negative = inhibition” value was inactive: 38.8%.

Take `CSc1ccc(/C=N/NC(=O)c2ccc(C)c(C)c2)cc1`: the Potency is active: 28.2 µM.

Take `Cc1c2oc3c(C)ccc(C(=O)N[C@@H]4C(=O)N[C@H](C(C)C)C(=O)N5CCC[C@H]5C(=O)N(C)CC(=O)N(C)[C@@H](C(C)C)C(=O)O[C@@H]4C)c3nc-2c(C(=O)N[C@@H]2C(=O)N[C@H](C(C)C)C(=O)N3CCC[C@H]3C(=O)N(C)CC(=O)N(C)[C@@H](C(C)C)C(=O)O[C@@H]2C)c(N)c1=O` (I: T[dV]P[Sar][NMeV] / II: T[dV]P[Sar][NMeV]; ester I:1-I:C, II:1-II:C; linker I:N-II:N via Actinocin(9to1)): the “activity change, negative = inhibition” value was inactive: -24.3%.

Turning to `O=C1C(O)=C(O)C(=O)C(O)=C1O`, the “activity change, negative = inhibition” value was inactive: -18.3% [at 21.4 µM].

For the molecule `COc1ccc2c(c1)C(=NNC(=O)c1ccccn1)c1cc(OC)ccc1-2`, the Potency was active: 10 µM.

`CC[C@@H]1Cc2cc(O)ccc2C2=C1c1ccc(O)cc1C[C@H]2CC`: the “activity change, negative = inhibition” value was inactive: -2.78%.

Consider `Oc1cc(O)cc(/C=C/c2ccc(O)c(O)c2)c1`, for which the “activity change, negative = inhibition” value was inactive: -12.7%.

`O=C(O)CSc1cc(C(=O)c2cc(F)ccc2O)cn2c(=O)c3c(-c4ccccc4)csc3nc12`: the Potency is active: 25.1 µM.

In the case of `Nc1nnc(-c2cccc(Cl)c2Cl)c(N)n1`, the Potency entry was “inactive”.

Regarding `CC/C=C\C/C=C\C/C=C\CCCCCCCC(=O)O`, the Potency result was “inactive”.

With `Oc1cc(O)c2c(c1)OC(c1ccc(O)c(O)c1)C(O)C2` (configuration not stated), the “activity change, negative = inhibition” value is inactive: -16%.

Regarding `CCC(C)n1c(NC(=O)c2ccccc2)c(C#N)c2nc3ccccc3nc21` (configuration not stated), the Potency is active: 10 µM.

Regarding `COc1ccc(-c2[nH]n(-c3ccc([N+](=O)[O-])cc3)c(=O)c2C=NCc2ccncc2)cc1`, the Potency is active: 7.94 µM.

With `CN(C)[C@@H]1C(=O)C(C(=O)NCN2CCCC2)=C(O)[C@@]2(O)C(=O)C3=C(O)c4c(O)cccc4[C@@](C)(O)C3CC12` (some centres not stated), the Potency was active: 14.1 µM.

As for `NC(C(=O)NC1C(=O)N2C(C(=O)O)=C(Cl)CSC12)c1ccccc1` (configuration not stated), the “activity change, negative = inhibition” value is inactive: 6.72%.

As to `Cc1ccc(CNc2ccc(O)cc2)cc1`, the Potency was active: 25.1 µM.

Consider `O=c1[nH]nc(CNc2ccc(O)cc2)c2ccccc12`, for which the Potency was active: 35.5 µM.

With `CCCCC1C(=O)N(c2ccccc2)N(c2ccccc2)C1=O`, the Potency entry was “inactive”.

For the molecule `CC1=CC(=O)c2ccccc2C1=O`, the Potency entry was “inactive and active: 17.8 µM”.

Regarding `O=C(O)Cc1ccc(O)c(O)c1`, the “activity change, negative = inhibition” value was inactive: -1.4%.

Turning to `CNC(=O)[C@H]1O[C@H](n2cnc3c(NCc4cccc(I)c4)ncnc32)[C@@H](O)[C@@H]1O`, the “activity change, negative = inhibition” value was inactive: -0.208%.

`CC(Cc1ccc(O)c(O)c1)C(C)Cc1ccc(O)c(O)c1` (configuration not stated): the Potency entry is “inactive”.

As for `COc1cccc(/C=N/NC(=O)c2cc3cc([N+](=O)[O-])ccc3s2)c1O`, the Potency is active: 15.8 µM.

Take `c1ccc2c(c1)CCC[C@@H]2C1=NCCN1`: the “activity change, negative = inhibition” value was inactive: 0.62%.

Consider `CNCC[C@@H](Oc1ccccc1C)c1ccccc1`, for which the “activity change, negative = inhibition” value was inactive: 7.73%.

As to `COc1ccccc1-n1cnc2c(c1=O)c1nc3ccccc3nc1n2-c1ccc(C)cc1`, the Potency is active: 10 µM.
